Data: PMC4336329 (PLoS ONE, 2015)
Among all 310,000 compounds or so, about 2,200 (0.71%) showed an effect of 50% or more. Effects have a minus sign here. This is one part of the list.

Each compound was assayed against human ether-à-go-go-related gene (hERG) potassium channel (human, UniProt Q12809) (assay: primary screen, population patch clamp on CHO cells stably expressing hERG).
Sequence of human ether-à-go-go-related gene (hERG) potassium channel (Q12809 whole entry, looked up): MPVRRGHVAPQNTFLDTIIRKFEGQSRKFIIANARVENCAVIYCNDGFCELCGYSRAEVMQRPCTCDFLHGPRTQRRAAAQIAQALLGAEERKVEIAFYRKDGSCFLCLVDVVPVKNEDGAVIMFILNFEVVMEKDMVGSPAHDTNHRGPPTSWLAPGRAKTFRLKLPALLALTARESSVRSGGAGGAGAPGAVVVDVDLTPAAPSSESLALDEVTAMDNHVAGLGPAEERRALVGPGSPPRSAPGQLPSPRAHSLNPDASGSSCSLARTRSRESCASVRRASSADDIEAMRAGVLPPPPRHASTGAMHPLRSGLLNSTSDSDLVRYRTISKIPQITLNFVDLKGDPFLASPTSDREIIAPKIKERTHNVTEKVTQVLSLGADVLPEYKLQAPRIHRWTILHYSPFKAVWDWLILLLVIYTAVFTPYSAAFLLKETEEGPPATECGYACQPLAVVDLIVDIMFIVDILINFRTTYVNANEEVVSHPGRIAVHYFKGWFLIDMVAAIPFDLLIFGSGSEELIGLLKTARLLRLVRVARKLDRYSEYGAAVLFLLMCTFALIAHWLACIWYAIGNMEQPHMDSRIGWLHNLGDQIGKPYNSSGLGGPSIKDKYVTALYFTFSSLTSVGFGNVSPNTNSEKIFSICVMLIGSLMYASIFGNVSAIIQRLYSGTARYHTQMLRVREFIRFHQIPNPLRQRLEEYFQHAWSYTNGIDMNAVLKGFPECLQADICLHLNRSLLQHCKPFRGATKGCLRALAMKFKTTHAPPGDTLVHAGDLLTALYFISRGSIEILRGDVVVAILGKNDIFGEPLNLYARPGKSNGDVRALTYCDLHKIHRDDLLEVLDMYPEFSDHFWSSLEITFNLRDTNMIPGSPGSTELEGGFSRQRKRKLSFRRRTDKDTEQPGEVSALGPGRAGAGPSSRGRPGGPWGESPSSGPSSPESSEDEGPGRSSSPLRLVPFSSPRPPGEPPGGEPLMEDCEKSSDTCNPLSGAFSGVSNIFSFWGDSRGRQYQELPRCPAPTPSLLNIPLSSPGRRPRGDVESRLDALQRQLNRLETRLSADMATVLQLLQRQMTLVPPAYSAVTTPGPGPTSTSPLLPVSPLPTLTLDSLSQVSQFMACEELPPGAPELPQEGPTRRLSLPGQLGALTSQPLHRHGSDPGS
For `CCOc1ccc2nc3sc(C(=O)N4CCN(C)CC4)c(N)c3cc2c1`, the “hERG current change (%, negative = inhibition) at 1uM” value was 14%. With `Cc1ccc(C)c(OCCn2nnc3ccccc32)c1` the “hERG current change (%, negative = inhibition) at 1uM” value was 20.2%. In the case of `CCOc1ccc(N(C(C)C(=O)Nc2cccnc2)S(C)(=O)=O)cc1` (centres unmarked), the “hERG current change (%, negative = inhibition) at 1uM” value is reported as 13.6%. In the case of `CCn1c(=O)cc(OCC(=O)Nc2nc(C)cs2)c2ccccc21`, the “hERG current change (%, negative = inhibition) at 1uM” value is reported as 10.1%. In the case of `COc1ccc(CN2CCN(c3ccccn3)CC2)c(OC)c1C.O=C([O-])C(=O)[O-]`, the “hERG current change (%, negative = inhibition) at 1uM” value is reported as -23.1%. In the case of `Cc1ccc(C(=O)O/N=C(\N)c2ccccn2)cc1`, the “hERG current change (%, negative = inhibition) at 1uM” value is reported as 9.05%. For `O=S(=O)(NCCc1c[nH]c2ccccc12)c1ccccc1`, the “hERG current change (%, negative = inhibition) at 1uM” value was 15.5%. For `O=C(C1CCCN(S(=O)(=O)c2cccc3nsnc23)C1)N1CCC2(CC1)OCCO2` (centres unmarked), the “hERG current change (%, negative = inhibition) at 1uM” value was 3.57%. `Cc1ccccc1-n1nc2c(c1NC(=O)c1ccco1)CS(=O)(=O)C2` was tested, and the “hERG current change (%, negative = inhibition) at 1uM” value was 16.8%. With `O=C(Nc1ccc(S(=O)(=O)NC2CCCC2)cc1)c1cnccn1` the “hERG current change (%, negative = inhibition) at 1uM” value was 7.58%. In the case of `CC(C)C[C@H](NC(=O)[C@@H]1Cc2ccccc2CN1C(=O)OC(C)(C)C)C(=O)NCC1CCC(C(=O)O)CC1` (some centres unmarked), the “hERG current change (%, negative = inhibition) at 1uM” value is reported as 14.3%. With `C=C1C(C(=O)N2CCN(C)CC2)C1C(=O)N1CCN(C)CC1` (centres unmarked) the “hERG current change (%, negative = inhibition) at 1uM” value was 5.61%. With `c1ccc(OCc2nn3c(-c4ccncc4)nnc3s2)cc1` the “hERG current change (%, negative = inhibition) at 1uM” value was 2.17%. In the case of `COc1ccc(NC(=O)C(=S)NC2CCCCC2)cc1`, the “hERG current change (%, negative = inhibition) at 1uM” value is reported as -12.1%. In the case of `C=CCc1ccc(OCc2ccc(C(=O)Nc3ccc(NC(C)=O)cc3)o2)c(OC)c1`, the “hERG current change (%, negative = inhibition) at 1uM” value is reported as 15.2%. `COc1ccccc1N1CCN(CCCCN2C(=O)C3CCCCN3C2=O)CC1` (centres unmarked) was tested, and the “hERG current change (%, negative = inhibition) at 1uM” value was 1.46%. For `COc1cc(C(=O)NCCc2ccc(S(N)(=O)=O)cc2)cc(OC)c1OC`, the “hERG current change (%, negative = inhibition) at 1uM” value was 12.6%. In the case of `CCOc1ccc(CN(C)C(=O)c2cccnc2OCC)cc1OC`, the “hERG current change (%, negative = inhibition) at 1uM” value is reported as 9.62%. `CCCCn1c(SC(C)C(=O)NCC2CCCO2)nc2cc(C(=O)OC)ccc2c1=O` (centres unmarked) was tested, and the “hERG current change (%, negative = inhibition) at 1uM” value was -0.216%. For `COc1ccc2nc(N/C(N)=N/C(=S)Nc3c(C)cccc3C)nc(C)c2c1`, the “hERG current change (%, negative = inhibition) at 1uM” value was 4.86%. `COc1ccc(/C=N/NC(=O)c2sccc2OCc2ccc(F)cc2)cc1OC` was tested, and the “hERG current change (%, negative = inhibition) at 1uM” value was 12.4%. For `O=[N+]([O-])c1cccc(S(=O)(=O)NCC2CCCO2)c1` (centres unmarked), the “hERG current change (%, negative = inhibition) at 1uM” value was 15.2%. In the case of `O=C(N[C@@H](Cc1ccccc1)C(=O)NCCc1c[nH]c2ccccc12)c1ccco1`, the “hERG current change (%, negative = inhibition) at 1uM” value is reported as 12.4%. With `CC1(C)Cc2cccc(OCC(=O)Nc3nccs3)c2O1` the “hERG current change (%, negative = inhibition) at 1uM” value was 11.8%. In the case of `COCCn1c(SCC(=O)N(C)c2ccccc2)nc2c([nH]c3ccccc32)c1=O`, the “hERG current change (%, negative = inhibition) at 1uM” value is reported as 8.01%. In the case of `CCOC(=O)c1c(NC(=O)CSc2nnc(CNc3ccc(F)cc3)o2)sc(C)c1C`, the “hERG current change (%, negative = inhibition) at 1uM” value is reported as 0.229%. For `CCc1ccc(N=c2c([N+](=O)[O-])nn(-c3ccc4c(c3)OCCO4)n2O)cc1`, the “hERG current change (%, negative = inhibition) at 1uM” value was 4.65%. `COc1ccc(NS(=O)(=O)c2ccc3nc(COc4ccc(C#N)cc4)[nH]c3c2)cc1` was tested, and the “hERG current change (%, negative = inhibition) at 1uM” value was 9.44%. In the case of `Cc1ncc(CN2CCC(CO)(Cc3ccccc3)CC2)s1`, the “hERG current change (%, negative = inhibition) at 1uM” value is reported as 4.55%. In the case of `O=C(COC(=O)CCSc1ccc(Cl)cc1)NCc1ccc(Cl)cc1`, the “hERG current change (%, negative = inhibition) at 1uM” value is reported as 7.98%. With `Cc1nn(CC2CC2)c(=O)n1-c1ccccc1F` the “hERG current change (%, negative = inhibition) at 1uM” value was 7.24%. For `CCCn1c(=O)c(C(=O)Nc2ccccc2C)c(O)c2ccccc21`, the “hERG current change (%, negative = inhibition) at 1uM” value was 9.39%. In the case of `CCOc1cc(N2CCOCC2)c(OCC)cc1NC(=O)c1ccc2ccccc2n1`, the “hERG current change (%, negative = inhibition) at 1uM” value is reported as 16.7%. For `COc1ccc(CNC(=O)CN(C(=O)CCC(=O)Nc2ccccn2)c2cccc(C)c2C)cc1`, the “hERG current change (%, negative = inhibition) at 1uM” value was 12.7%. For `CCOCCn1c(CCCO)nc2ccccc21`, the “hERG current change (%, negative = inhibition) at 1uM” value was 10.3%. For `S=c1[nH]nc(COc2cccc3ccccc23)n1Cc1ccccc1`, the “hERG current change (%, negative = inhibition) at 1uM” value was 9.86%. In the case of `N#Cc1c(/N=C/C2C(=O)NC(=S)NC2=O)sc2c1CCCC2`, the “hERG current change (%, negative = inhibition) at 1uM” value is reported as 16.2%. For `CC(=O)c1cccc(NS(=O)(=O)c2cc3c(cc2C)NC(=O)CO3)c1`, the “hERG current change (%, negative = inhibition) at 1uM” value was -2.4%. With `COc1ccc(S(=O)(=O)N(C)CC(=O)NCc2ccco2)cc1` the “hERG current change (%, negative = inhibition) at 1uM” value was 5.4%. For `CN1CCN(NC(=S)Nc2ccccc2)CC1`, the “hERG current change (%, negative = inhibition) at 1uM” value was 13.2%. In the case of `C=CCN(C(=O)c1cccc(N2C(=O)C3CC=CC(C)C3C2=O)c1)c1ccccc1` (centres unmarked), the “hERG current change (%, negative = inhibition) at 1uM” value is reported as 3.82%. For `O=C(CCCn1cnc([N+](=O)[O-])n1)Nc1cccc(Cl)c1Cl`, the “hERG current change (%, negative = inhibition) at 1uM” value was 6.16%. `CCCCOC(=O)c1ccccc1C(=O)OCCCC` was tested, and the “hERG current change (%, negative = inhibition) at 1uM” value was 16%. `O=C(O)/C=C/C(=O)Nc1cccc2cccnc12` was tested, and the “hERG current change (%, negative = inhibition) at 1uM” value was 19.8%.
